# From PubChem BioAssay AID1794842 (National Center for Advancing Translational Sciences (NCATS), 2023)
# Out of some 2,800 compounds screened, fewer than 10 were called active. The call rests on the fitted dose curve; in most records, active means well fitted curve in the direction sought with a large enough effect; inconclusive means small, poorly fitted or top-dose-only effect, or another doubt; inactive means no such curve, though single readings can be large or run the other way. The list shows a part of the results.
# Biological target: Metallo-beta-lactamase type 2 (Klebsiella pneumoniae) (UniProt C7C422)
# Assay: qHTS to identify inhibitors of the New Delhi Metallo-beta-lactamase (NDM): Meropenem screen against the machine-based learning selections. Further: % of control where 0% means no effect.
# Details: Purified NDM-1, meropenem hydrolysis, absorbance 300 nm; at 38.4 µM (top of the series) unless noted
# In short: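 Hydrolysis by 2 nM NDM-1 was followed by absorbance after >30 min compound preincubation in HEPES pH 7.0 buffer with 1 uM Zn2SO4. For nitrocefin (16.7 uM, 15 min, 485 nm) and meropenem (50 uM, 30 min, 300 nm), each substrate ran on separate plates.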
# UniProt C7C422, sequence (C7C422 whole entry, looked up): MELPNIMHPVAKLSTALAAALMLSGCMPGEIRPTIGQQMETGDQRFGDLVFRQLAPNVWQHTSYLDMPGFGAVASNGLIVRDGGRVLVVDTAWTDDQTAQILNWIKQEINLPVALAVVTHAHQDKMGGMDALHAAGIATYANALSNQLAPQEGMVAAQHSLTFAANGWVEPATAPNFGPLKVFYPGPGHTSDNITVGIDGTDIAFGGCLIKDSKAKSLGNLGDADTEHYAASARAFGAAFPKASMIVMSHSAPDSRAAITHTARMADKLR
row,Structure (SMILES),"activity change, negative = inhibition"
1,Cc1ccc(NC(=O)N[C@@H]2C=C(C(=O)N[C@H](CC(C)C)C(N)=O)C[C@@H](O)[C@@H]2O)cc1,inactive: 1.51% [at 57.5 µM]
2,CN1[C@@H](CCC(=O)N2CCOCC2)CNC(=O)[C@@H]2[C@H]1CCN2Cc1cccc(OC(F)(F)F)c1,inactive: 2.69%
3,Cc1ccc(C(c2cccnc2)n2cc(-c3cncnc3)nn2)cc1C (centres undefined),inactive: 1.32%
4,CCC1(N2CCN(C(=O)CCc3c[nH]c4ccccc34)CC2)CCN(C(=O)NC)C1 (centres undefined),inactive: 1.71%
5,COCc1noc(CC2CCOC3(CCN(C(=O)NC4CCCCC4)CC3)C2)n1 (centres undefined),inactive: 4.67%
6,CCN(C(=O)Cn1nc2n(c1=O)CCCCC2)c1ccccc1,inactive: 0.922%
7,Cc1cccc(CC(C)NC(=O)c2ccc3nc(Cc4ccccc4F)oc3c2)n1 (centres undefined),inactive: -0.964%
8,COCC(=O)Nc1nc2c(s1)C[C@@H]1[C@](C)(CO)[C@H](O)CC[C@@]1(C)[C@@H]2CC(=O)NCc1cccnc1,inactive: 2.68%
9,c1coc(CN[C@H]2CO[C@H]3[C@@H]2OC[C@@H]3n2nnnc2Oc2ccc(-n3cncn3)cc2)c1,inactive: 0.401%
10,COCCNC(=O)CC[C@]12CC[C@](C)(O)C[C@H]1C(C)(C)C[C@@H]2NC(=O)c1ccc(C(F)(F)F)cc1,inactive: 0.156%
11,O=C(NCc1ccc(F)cc1)c1cc(-c2ccc[nH]2)n[nH]1,inactive: 1.45%
12,Cc1noc(-c2ccc(OC3CN(C(=O)CCCc4ccccc4)C3)cc2)n1,inactive: 0.774%
13,COc1ccc(C(=O)NC2CCN(c3cc(-c4ccc(Cl)cc4)[nH]n3)C2)cc1OC (centres undefined),inactive: -2.25%
14,O=C(c1ccccc1)N1CCN2C(=O)N(Cc3ccccc3)C(=O)[C@H]2C1,inactive: -2.85% [at 57.5 µM]
15,COCc1nc(-c2ccc(OC3CCN(S(=O)(=O)c4c(C)noc4C)C3)cc2)no1 (centres undefined),inactive: -0.642%
16,Cn1ccc2c(C(=O)NCCc3cnc[nH]3)nc(-c3cccnc3)cc21,inactive: 25.1% [at 57.5 µM]
17,COc1ccc(CN2C[C@@H](F)[C@@H](OCc3nc4ccc(C)cc4[nH]3)C2)cc1,inactive: -0.338% [at 57.5 µM]

row,Structure (SMILES),"activity change, negative = inhibition"
1,CN1CCCC1c1nc(C2CN(C(=O)CCCc3c[nH]c4ccccc34)C2)no1 (centres undefined),inactive: 1.34%
2,COc1ccc(CCC(=O)N2CCCN(c3cc(-c4ccc(Br)cc4)[nH]n3)CC2)cc1,inactive: -0.568%
3,COc1ccc(CN2C(=O)CO[C@H](c3ccc(NC(=O)NC(C)(C)C)cc3)[C@H]2CO)cc1,inactive: -1.69%
4,COc1ccccc1CCC(=O)NCc1nnc2ccc(-c3ccc(C)cc3)nn12,inactive: -1.43%
5,C[C@@H](NC(=O)c1cccs1)c1onc(-c2ccc(F)cc2)c1C(=O)O,inactive: 3.33% [at 57.5 µM]
6,Cc1ccc(C2(O)CCN(C(=O)[C@@H](N)Cc3cnc[nH]3)CC2)nc1,inactive: 15.7%
7,CC[C@H]1CN(S(=O)(=O)c2c(C)noc2C)CC[C@H]1CC(=O)NCc1ccco1,inactive: 1.93% [at 57.5 µM]
8,F[C@@H]1CN(C2CCC2)C[C@@H]1OCc1nc2ncccc2[nH]1,inactive: 1.21% [at 76.7 µM]
9,O=C(Nc1ccc(C2(C(=O)NCc3ccco3)CCCCC2)cc1)C1CC1,inactive: 0.56%
10,NC(=O)c1cccnc1N1CCC2(CCCN(Cc3cccc(F)c3F)C2)C1 (centres undefined),inactive: 16.7%
11,CN1Cc2ccc(Nc3ccccc3)nc2C(C)(C(=O)NCCc2cnc[nH]2)C1 (centres undefined),inactive: 7.12% [at 57.5 µM]
12,C=CCO[C@@H]1C[C@H]2C(=O)Nc3ccc(-c4ccc(F)cc4F)cc3C(=O)N2C1,inactive: 4.07% [at 57.5 µM]
13,Nc1nc(C2CC(O)C2)cc(N2CCC(CCN3CCCC3=O)CC2)n1 (centres undefined),inactive: 3.01%
14,C[C@H](O)c1c(-c2ccc(F)cc2)noc1C(=O)N1CCC1,inactive: 0.552% [at 76.7 µM]
15,COc1ccc(-c2[nH]nc3ncc(C(=O)NCCc4ccccc4)nc23)c(C)c1,inactive: 3.33% [at 57.5 µM]
16,O=C(CC[C@H]1NC(=O)c2ccccc2NC1=O)Nc1nc2c(s1)CCC2,inactive: 1.76%
17,Cc1nn(C)c2ncc(C(=O)O)c(NC3CC(c4cc(=O)[nH]cn4)C3)c12 (centres undefined),inactive: 7.09%
